Laboratory results reported in PubChem BioAssay AID624417 (National Center for Advancing Translational Sciences (NCATS), 2012).
Hit rate of the full screen: of about 410,000 compounds, about 6,400 (1.6%) were called active. Inconclusive means that the source gave no clear call. Such entries were picked first, then a sample of the others. Calls come from the whole dose curve; as a rule, active = well fitted inhibition curve with a large enough effect; inconclusive = small, poorly fitted or top-dose-only effect; inactive = no such curve, though single readings can be large or run the other way. A potency beside an inconclusive call is a rough fit, not a confirmed value.

Target: Glucagon-like peptide 1 receptor (Homo sapiens) (UniProt P43220)
Sequence of UniProt P43220 (P43220 whole entry, looked up): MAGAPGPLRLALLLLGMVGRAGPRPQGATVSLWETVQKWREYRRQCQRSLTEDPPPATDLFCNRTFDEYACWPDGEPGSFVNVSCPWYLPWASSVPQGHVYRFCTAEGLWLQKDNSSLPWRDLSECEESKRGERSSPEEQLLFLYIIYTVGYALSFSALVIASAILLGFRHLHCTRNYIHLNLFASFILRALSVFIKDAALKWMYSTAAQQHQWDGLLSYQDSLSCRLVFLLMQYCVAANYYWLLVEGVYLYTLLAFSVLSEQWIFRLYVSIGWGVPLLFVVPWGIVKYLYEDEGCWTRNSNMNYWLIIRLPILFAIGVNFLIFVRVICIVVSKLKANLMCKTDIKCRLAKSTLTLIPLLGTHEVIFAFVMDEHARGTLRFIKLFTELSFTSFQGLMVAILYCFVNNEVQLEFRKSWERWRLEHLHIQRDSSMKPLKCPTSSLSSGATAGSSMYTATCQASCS
Test: qHTS of GLP-1 Receptor Inverse Agonists (Inhibition Mode); note: nearly all actives have a fitted effect of over 55% in size
Details: HEK293 GLP-1R CRE-luciferase, luminescence, 24 h, GLP-1R form is constitutively active; activity change, negative = inhibition: at 38.3 µM (top of the series) unless noted
Summary of the method: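 Inverse agonism was detected as reduced cAMP-driven luciferase luminescence after 24 h compound treatment. The cells were HEK293 clones expressing constitutively active human GLP-1R with the reporter. Reporter-only and GPR119 cell lines served as counterscreen controls.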
% is set by controls: 0 for no effect and ±100 for the full control effect; potency is the fitted concentration of half-maximal effect; tags give direction and shape of the fitted curve.

Potency, active:
COc1ccc(N2CCN(C(=O)NC34CC5CC(CC(C5)C3)C4)CC2)cc1 7.94 µM

Potency, inconclusive:
COc1ccc(C)cc1NS(=O)(=O)c1ccc(Br)s1 22.4 µM [inhibitor, single point], COc1ccccc1C(=O)N/C(=C\c1ccccc1)C(=O)NC(C)C(=O)O (stereo not given) 11.2 µM [inhibitor, partial curve, poor fit], CC1CN(c2ccccc2)CCN1C(=O)c1cc(COc2c(F)cccc2F)on1 (stereo not given) 7.94 µM [inhibitor, single point], C/C=C/c1ccc(OCCn2nnc3ccccc32)c(OC)c1 25.1 µM [inhibitor, single point], CC1(C)c2ccccc2N(CC(N)=O)C12C=Cc1ccccc1O2 (stereo not given) 11.2 µM [inhibitor, partial curve, poor fit], COc1ccc([C@H]2CC(=O)C=C(c3ccc(Oc4ccccc4)cc3)C2)cc1OC 28.2 µM [inhibitor, single point], CC(C)Cc1ccc(CN2CCCC(NC(=O)c3cnc4ccccn4c3=O)C2)cc1 (stereo not given) 5.01 µM [inhibitor, full curve, poor fit], CSCCC(NC(=O)COc1ccccc1)C(=O)N(C)CC(=O)Nc1ccc(Cl)cc1 (stereo not given) 11.2 µM [inhibitor, partial curve, poor fit], CCc1cc(-c2n[nH]c(C)c2Oc2ccc(C(C)C)cc2)c(O)cc1O 12.6 µM [inhibitor, single point], Cc1ccc(C)c(N2CCN(C(=O)CCC(=O)N3CCOc4ccc(Cl)cc43)CC2)c1 6.31 µM [inhibitor, partial curve, poor fit], CC(=O)c1ccc(NC(=S)N2CCN(c3cccc(Cl)c3)CC2)cc1 10 µM [inhibitor, single point], COc1cccc(NS(=O)(=O)c2cc(C)ccc2OC)c1 28.2 µM [inhibitor, single point], COc1cc(/C=C2/SC(=S)NC2=O)ccc1OS(=O)(=O)c1ccc(C)cc1 22.4 µM [inhibitor, single point], O=C(COC(=O)c1cccc(S(=O)(=O)N2CCCC2)c1)Nc1ccccc1Cl 8.91 µM [inhibitor, partial curve, poor fit], O=C(Cn1cc(COc2ccc(C(=O)c3ccccc3)cc2)nn1)c1ccc(O)cc1 1.78 µM [inhibitor, full curve], CCOc1ccc(C(=O)NC(=S)Nc2ccccc2N2CCOCC2)cc1Br 2.82 µM [inhibitor, full curve], CC1(c2ccc(OC(F)F)cc2)NC(=O)N(CC(=O)Nc2cccc(F)c2)C1=O (stereo not given) 10 µM [inhibitor, single point], CCN1C(=O)[C@@H]2[C@@H](c3ccc(-c4cccc(Cl)c4)c(OC)c3)N3CCCC[C@@]3(C(=O)OC)[C@@H]2C1=O 11.2 µM [inhibitor, partial curve, poor fit], Cc1cc(Cl)ccc1-c1nc(NCCN(C)C)nc2ccsc12 28.2 µM [inhibitor, single point], CCCCN(C)c1c(C)nc2ccc(C(=O)Nc3ccc(OC)c(OC)c3)cn12 11.2 µM [inhibitor, single point], CCCSc1nc(-c2ccccc2)[nH]c1S(=O)(=O)c1ccc(C)cc1 22.4 µM [inhibitor, single point], Cc1ccc(-c2c(C(=O)NCCc3ccccc3)oc(=O)c3ccccc23)cc1 20 µM [inhibitor, single point], CN(c1ccc(C(=O)Nc2ccc(F)cc2F)cc1)S(=O)(=O)c1ccccc1 22.4 µM [inhibitor, single point], Cc1oc(-c2cccs2)nc1CN1CCC(CO)(CCOc2ccccc2)CC1 10 µM [inhibitor, partial curve, poor fit], O=C(/C=C/c1ccc(OC2CSC2)cc1)c1ccccc1 28.2 µM [inhibitor, single point], C=CCN(C(=O)Cn1nc(C)n2c(cc3cc(C)ccc32)c1=O)c1ccccc1 10 µM [inhibitor, single point], O=C(CSc1nc(-c2ccco2)cc(C(F)(F)F)n1)N1CCN(Cc2ccccc2)CC1 28.2 µM [inhibitor, single point], CCOc1ccc(Br)cc1S(=O)(=O)Nc1cccc(S(=O)(=O)N(C)c2ccccc2)c1 11.2 µM [inhibitor, partial curve, poor fit], Cc1ccc(C)c(NC(=O)C2C(c3ccccc3)C2(Cl)Cl)c1 (stereo not given) 11.2 µM [inhibitor, partial curve, poor fit], Cc1csc(Sc2ccc([N+](=O)[O-])cc2C(=O)OCC(=O)NC(=O)NC(C)(C)C)n1 28.2 µM [inhibitor, single point], CC(C)=CC(O)C/C(C)=C/COc1ccc2ccc(=O)oc2c1 (stereo not given) 28.2 µM [inhibitor, single point], Cc1cc(NC(=O)CCC(=O)N(c2ccccc2)C(C(=O)NC(C)(C)C)c2ccccc2Cl)no1 (stereo not given) 31.6 µM [inhibitor, single point], O=C1CC(c2ccccc2)SC(N(c2ccccc2)c2ccccc2)=N1 (stereo not given) 3.98 µM [inhibitor, partial curve, poor fit], C[C@@H]1CN([C@@H](C)CO)C(=O)c2cc(NS(=O)(=O)c3ccc(F)cc3)ccc2O[C@@H](C)CCCCO[C@H]1CN(C)C(=O)NC1CCCCC1 11.2 µM [inhibitor, partial curve], CN(C)c1ccc(-c2csc(C(O)c3cccc(Cl)c3)n2)cc1 (stereo not given) 20 µM [inhibitor, single point], CC(C)c1ccc(C2=NN(c3ccccc3)C(=O)CC2)cc1 11.2 µM [inhibitor, partial curve, poor fit], Cc1ccccc1NC(=O)CCSc1nnnn1-c1ccccc1 12.6 µM [inhibitor, single point], CC(=O)N1c2ccccc2C(C)(c2ccc(C)cc2)CC1(C)C (stereo not given) 28.2 µM [inhibitor, single point], COc1ccc(OCCn2c(NC(=O)c3ccco3)nc3ccccc32)cc1 11.2 µM [inhibitor, partial curve, poor fit], CC1CC2(CCCCC2)Nc2c1ccc1ccccc21 (stereo not given) 6.31 µM [inhibitor, partial curve, poor fit], N/C(CSc1ccccn1)=N\OCc1c(Cl)cccc1Cl 28.2 µM [inhibitor, single point], CCN(CC)S(=O)(=O)c1ccc(Cl)c(NC(=O)COC(=O)c2cccn2C)c1 31.6 µM [inhibitor, single point], Cc1cc(C)c(OCCOCCN2CCN(C)CC2)c(Cl)c1 10 µM [inhibitor, partial curve, poor fit], CCC/C(=N/NC(=O)c1csc(C)c1C)c1ccc(Cl)s1 8.91 µM [inhibitor, partial curve, poor fit], CCOC(=O)c1c(C)oc2ccc(OCC(=O)C(C)(C)C)cc12 12.6 µM [inhibitor, partial curve], CCOc1ccc(S(=O)(=O)N2CCCC(C(=O)NCc3cccnc3)C2)cc1C (stereo not given) 6.31 µM [inhibitor, partial curve], NC(=S)NN=C1CCCCCCCC1 1.12 µM [inhibitor, full curve, poor fit]

Activity change, negative = inhibition, inactive:
O=c1oc2ccc3ccccc3c2cc1-c1nnc(Nc2ccccc2F)s1 3.64%, COc1ccc(C(=O)N[C@H](C(=O)NCc2ccco2)C(C)C)cc1 -9%, Cc1cc(C(=O)Nc2ccc(Cl)cc2)c(C)n1-c1ccccc1 -82.3%, Cc1cc(C(=O)N2CCC2(C)C(=O)NS(=O)(=O)c2ccccc2Cl)nn1C (stereo not given) 0.338%, CC(=O)N1CCc2cc(S(=O)(=O)NC(Cc3ccccc3)C(=O)Nc3cc(C)ccc3C)ccc21 (stereo not given) 0.488%, CC1CCc2c(sc(NC(=O)CSc3ncn[nH]3)c2C#N)C1 (stereo not given) -7.71%, CC(NCc1ccc2c(c1)OCO2)C(=O)N1CCc2ccccc21 (stereo not given) -20.7%, CCC(=O)Nc1cc2nn(-c3ccc(OC)cc3)nc2cc1C 0.767%, COC(=O)[C@@H](C)NC(=O)c1ccc2oc(CCc3ccccc3)nc2c1 3.61%, COc1cc2c(cc1OC)C(COc1ccc3c(C)cc(=O)oc3c1)N(C(=O)c1ccccc1C)CC2 (stereo not given) 6.49%, O=c1oc2c3c(ccc2c2ccccc12)OCN(Cc1ccc(Cl)cc1)C3 18.1%, OC1(c2ccc3c(c2)OCO3)CCN(Cc2ccc(F)cc2)CC1 0.436%, COc1ccc(-c2nc3ccccc3n3c(-c4ccccc4)c4c(=O)n(C)c(=O)n(C)c4c23)cc1OC 4.78%, O=C(c1ccc(Br)o1)N(Cc1ccccc1)c1ccccn1 0%, CS(=O)(=O)c1ccc(Cl)c(NC(=O)CCl)c1 2.91%, c1cnc(N2CCN(c3ncc4c(n3)CCNC4)CC2)nc1 16%, CCSc1nnc(Nc2ccc(C)cc2)s1 -26.5%
